From PubChem BioAssay (NCI)
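All cell lines were grown in 96-well plates and treated with compound for 48 hours. GI50: concentration for 50% inhibition of growth. The concentration for full growth arrest is given as TGI.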

tested on: NCI-H322M lung; test: NCI anticancer screen, dose series, 48 h

Compound | TGI | GI50
CC1(C)OC[C@H](COCOP2(=O)Oc3ccc4ccccc4c3-c3c(ccc4ccccc34)O2)O1 | 34 µM | 
COC(=O)[C@@H](NC(=O)[C@H](N)Cc1ccc(N(CCCl)CCCl)cc1)C(C)C | > 100 µM | 
O=C(Cn1c(C(=O)/C=C/c2ccc(Cl)cc2)nc2ccccc21)c1ccc(Cl)cc1 | 61.8 µM | 
COc1c(-c2ccc3c(c2)OCO3)oc2cc(O)cc(O)c2c1=O | > 100 µM | 
CCOC(=O)CC(=O)Nc1cccc2sc3ncccc3c(=O)c12 | > 100 µM | 
CC(=O)N1C(CCc2ccccc2)CC(C)(C=O)C1Cc1ccc(O[Si](C(C)C)(C(C)C)C(C)C)cc1 (stereo unspecified) | 26.8 µM | 
CC(=O)c1c2c(cc3c1CC1(Cc4cc5c(cc4C1)C(=O)CCC5)C3)CCCC2 (stereo unspecified) | > 100 µM | 
NC(Cc1cccnn1)C(=O)O (stereo unspecified) | > 100 µM | 
Cc1ccc(C)c(NC(=O)C(=O)C2C(=O)N(c3ccccc3)N=C2N)c1 (stereo unspecified) | > 100 µM | 
c1cc(C2CCCCC2)ccc1-c1cnc2nonc2n1 | 5.87 µM | 2.39 µM
NCCCC(N=Cc1nc(-c2ccccc2)oc1O)C(=O)O (stereo unspecified) | > 100 µM | 
O=C1NC2(CCCCC2)C2CCCCC=C12 (stereo unspecified) | > 100 µM | 
O=C(/C=C/c1ccccc1)c1cc(C(=O)/C=C/c2ccccc2)c(O)cc1O | > 100 µM | 
CCn1cc(C(=O)N/N=C/c2cccs2)c(=O)c2cc(F)c(N3CCNC(C)C3)c(F)c21 (stereo unspecified) | 2.93 µM | 1.59 µM
N#C/C(=C\c1ccc([N+](=O)[O-])o1)c1n[nH]c(Cc2ccccc2)n1 | 29.3 µM | 
COc1cccc2c(SCC(=O)Nc3ccccc3-c3ccccc3NC(=O)CSc3c4ccccc4nc4c(OC)cccc34)c3ccccc3nc12 | > 100 µM | 
CCN(CC)/[N+]([O-])=N/OCOC | > 100 µM | 
COc1cccc(N2CCN(c3ncnc4cc[nH]c34)CC2)c1 | > 100 µM | > 100 µM
Cc1nc2sc(C(=O)Nc3ccccc3)c(N)c2cc1C(O)c1ccccc1 (stereo unspecified) | > 100 µM | 0.608 µM
C[C@H](c1ccccc1)n1c(N)c(-c2nc3ccccc3s2)c2ccc([N+](=O)[O-])cc2c1=O | 22.5 µM | 
CCCCCCCCCC(=O)NC(CCC(=O)N(CCNC(=O)c1nc(-c2ccccc2)oc1-c1ccccc1)Cc1ccccc1)C(=O)O (stereo unspecified) | 34 µM | 
CC(=O)NC1CC(C(C)(C)NC(C)=O)CC=C1C (stereo unspecified) | > 100 µM | 
C#CCOc1cccc(Nc2ncnc3cc(NC(=O)C=C)ccc23)c1 | > 100 µM | 23.6 µM
C=C1C2CC3CCC2C(OC(=O)c2ccccc2C(=O)O)C13 (stereo unspecified) | > 100 µM | 
O=C1C(Cl)=C(Cl)C(=O)N1c1ccc(F)cc1 | > 94.8 µM | 

Compound | TGI | GI50
Cc1cc(N(CCC#N)CCC#N)ccc1/C=C(\NC(=O)/C=C/c1ccccc1)C(=O)Nc1ccc(Cl)cc1 | > 100 µM | 
COc1c2cc([N+](=O)[O-])cc1CN(C(=O)C(F)(F)F)CCOCCN(C(=O)C(F)(F)F)C2 | > 100 µM | 
O=S(O)CCCSSSCCCS(=O)O | > 100 µM | 
O=[N+]([O-])c1cccc(S(=O)(=O)N/N=C/c2cc(I)cc([N+](=O)[O-])c2O)c1 | 68.7 µM | 
O=C1c2ccn(CCCNC(CO)(CO)CO)c2C(=O)c2c1c(O)c1ccccc1c2O | 25.3 µM | 6.51 µM
c1ccc2c(c1)SP1Sc3ccccc3P21 (stereo unspecified) | > 100 µM | 
O=C1C[C@@H]2[C@@H](c3ccccc3)[C@@H]3C(=O)c4ccccc4NC(=O)[C@H]3[C@]2(O)c2ccccc2N1 | > 100 µM | 
O=c1oc2ccccc2c(O)c1C(c1cccc(C(c2c(O)c3ccccc3oc2=O)c2c(O)c3ccccc3oc2=O)c1)c1c(O)c2ccccc2oc1=O | > 100 µM | 
O=C1C(Cl)=C(Nc2cc(Cl)ccc2O)C(=O)N1Cc1ccccc1 | 47.1 µM | 23.9 µM
O=C1C(c2c(O)[nH]c3ccc(Cl)cc23)=Nc2ccccc21 | > 100 µM | 
CSCC(CO)NC(=O)/C=C/c1c(C)[nH]c(=O)[nH]c1=O (stereo unspecified) | 866 µM | 
[Cl][Hg][c]1ccc2ccccc2c1 | 14.2 µM | 6.06 µM
CC(=O)c1ccc2c3c1[C@H]1O[C@H]1c1cccc(c1-3)[C@@H]1O[C@H]21 | 9.73 µM | 
CC(C)(C)n1c(=O)n(-c2ccccc2)n(C(C)(C)C)c1=O | > 100 µM | 
Cc1ccc(Nc2nc(=O)c3c([nH]c4ccccc43)s2)cc1 | 39.7 µM | 
CCC[n+]1cc2cc3c(cc2c2c1-c1cc4c(cc1C2)OCO4)OCO3 (tested in a mixture with another compound) | 26.1 µM | 1.56 µM
CO[C@@H]1C[C@H]2[C@@H]3CC[C@H]([C@H](C)COC(C)=O)[C@@]3(C)CC[C@@H]2[C@@]2(C)CC[C@H]3C[C@]312 | > 100 µM | 
Nc1nc(Cl)c(N)c(NCC2(CO)CCC(CCc3ccccc3)C2)n1 (stereo unspecified) | 68.3 µM | 
COC(=O)[C@]12C3=C(O)C(=O)C[C@H]1OC[C@H]2C=CC3 | > 100 µM | 
Cc1cc(Cl)ccc1N=C1NC(=O)C(CC(=O)Nc2cccc(C)c2C)S1 (stereo unspecified) | > 100 µM | 
CNCC(=O)NC(CO)C(=O)NC(CO)C(=O)NC1C(C(N)=O)OC(n2ccc(N)nc2=O)C(O)C1O (stereo unspecified) | > 50 µg/mL | 8.59 µg/mL
C=CCc1oc(C)nc1CCCC | > 100 µM | 
COc1ccc(-c2c(-c3ccccc3)c(C)nc3[nH]c(=S)[nH]c(=S)c23)cc1OC | 44.2 µM | 
Cc1ccc(NC(=S)C#N)c(C)c1 | > 100 µM | 
CC(C)(O)CCc1cccc(C(=O)c2cnn(-c3ccc(F)cc3)c2N)c1 | > 25 µM | > 25 µM

Compound | TGI | GI50
OC(CN1CCCC2CCCCC21)c1cc2ccccc2c2ccccc12 (stereo unspecified) | 14.6 µM | 3.56 µM
O=C(Nc1ccc([N+](=O)[O-])cc1[N+](=O)[O-])C(=O)C(C(=O)c1ccc(Cl)c(Cl)c1)C1OC(=O)c2ccccc21 (stereo unspecified) | > 100 µM | 
CO/C=C1\OC(=O)C=C1OC | > 100 µM | 
COc1ccc(/C=C2\CCC(C)c3c2nc(N)c(C#N)c3-c2ccc(OC)c(OC)c2)cc1OC (stereo unspecified) | > 100 µM | 
O=[N+]([O-])c1cccc(-c2cn3c(n2)Cc2ccccc2C3)c1 | > 100 µM | 
COc1ccc2c(CCCc3ccc(Cl)cc3Cl)c3[n+](cc2c1OC)CCc1cc2c(cc1-3)OCO2 | 5.71 µM | 1.81 µM
COc1ccc2nc3n(c2c1)C(c1c(F)cccc1F)SC3 (stereo unspecified) | > 100 µM | 
Cc1ccc(N=Nc2c(O)ccc3n[nH]nc23)cc1 | 80.9 µM | 17.2 µM
C=CC(=O)Nc1ccccc1CC(c1c[nH]c2ccccc12)c1c[nH]c2ccccc12 | 32.1 µM | 
CCCCCN(CCCCC)C(=O)[C@H](CCC(=O)O)NC(=O)c1cc2ccccc2[nH]1 | > 100 µM | 
CCO[C@@]12CCC3CC4CC[C@@](OCC)(O1)C4C32 (stereo partly specified) | > 100 µM | 
COc1ccc(C(OCC2OC3(COC(c4ccccc4)(c4ccc(OC)cc4)c4ccc(OC)cc4)C(Oc4nc(=O)ccn43)C2O)(c2ccccc2)c2ccc(OC)cc2)cc1 (stereo unspecified) | > 100 µM | 
CCOC(=O)C(=O)Nc1c(C)cccc1C(C)(C)C | > 100 µM | 
COc1ccc(C[C@@H](C(=O)O[C@H](C)[C@H](NC(=O)[C@@H](CC(C)C)N(C)C(=O)C2CCCN2C(=O)[C@H](C)O)C(=O)N2CCCCNC(=O)[C@@H](C)C(=O)[C@H](C(C)C)OC(=O)C[C@H](O)[C@H]2CC(C)C)N(C)C(C)=O)cc1 (stereo partly specified) | > 50 µM | 
O=c1[nH]c2ccc(Cl)cc2o1 | > 100 µM | 
O=[N+]([O-])c1ccc(C2SCc3nc4ccccc4n32)cc1 (stereo unspecified) | > 100 µM | 
CN(C)CC1C(=O)O[C@H]2[C@H]1CC/C(COC(=O)NCc1ccc(Cn3c(=O)sn(CCCI)c3=O)cc1)=C\CC[C@@]1(C)O[C@@H]21 (stereo partly specified) | 13.2 µM | 6.75 µM
COc1ccc(/C=C2\Sc3nnc(-c4ccccc4)n3N=C2c2cc(F)c(Cl)cc2Cl)cc1OC | > 100 µM | 
Cc1cccc2c1Sc1ccccc1C2NC(=O)CN(C)C (stereo unspecified) | > 100 µM | 
C[C@H]1COCCN1c1nc(-c2cnc(N)cc2C(F)F)nc(N2CCOCC2)n1 | > 39.2 µM | 0.213 µM
c1ccc(C2=NN=C3C(c4ccccc4)=Nc4ccccc4N3C2)cc1 | > 54.5 µM | 
Cc1nn(Cc2ccccc2)cc1C(=O)Nc1sc2c(c1C(N)=O)CCC(=O)C2 | > 100 µM | 6.28 µM
CNn1c(-c2ccc(C)cc2)n[nH]c1=O | > 100 µM | 
O=C(N/N=C/c1cc(Cl)ccc1O)c1ccccc1Nc1ccnc(C(F)(F)F)c1 | 32.8 µM | 0.586 µM
O=C(COC(=O)c1cccc2c(=O)c3ccccc3[nH]c12)Nc1ccc(Cl)cc1 | > 100 µM | 

Compound | TGI | GI50
Cc1nc2c(O)c3c(c(O)c2nc1C)C1C=CC3CC1 | > 100 µM | 
C=CCC(N[C@H](CO)c1ccccc1)c1ccccn1 (stereo partly specified) | > 100 µM | > 100 µM
Cn1cc(C2=C(c3cc[nH]c3)C(=O)NC2=O)c2ccccc21 | > 25 µM | > 25 µM
N#Cc1c(N)nc(SCc2ccccc2)c(C#N)c1-c1ccc(O)cc1 | 25.6 µM | 
Cc1cc(S(=O)(=O)NC2=NCCCN2)c(S)cc1Cl | > 100 µM | 
COc1cccc(/C=C2\SC(=S)N(/C=C3\C(=O)Oc4ccccc4C3=O)C2=O)c1O | > 100 µM | 
O=C(N=Nc1c(Cl)c(O)c2ccccc2c1O)C(=O)Nc1cccc(C(F)(F)F)c1 | 9.74 µM | 2.87 µM
Clc1ccc(C(Cc2ccccc2)c2c(Cl)nc(N3CCNCC3)nc2Cl)cc1 (stereo unspecified) | 33.8 µM | 
Cc1c(NC(=O)CSC(=S)N(C)C)c(=O)n(-c2ccccc2)n1C | > 100 µM | 
CSc1ccc(NC(=O)Nc2cc(C)ccn2)cc1 | > 100 µM | 
CC(C)=CCC/C(C)=C/Cc1c(O)c(C)cc2c1[nH]c1cc(O)ccc12 | > 25 µM | 
O=C(Cn1c2c(c3ccccc31)CCCC2)N1CCCCC1 | > 100 µM | 
CC[C@@H]([C@H](O)c1ccccc1Cl)[N+](=O)[O-] | > 100 µM | 
CC(C)(C)C(=O)c1c(C(F)(F)F)n([O-])c2cc(Cl)c(Cl)cc2[n+]1=O | 3.05 µM | 1.66 µM
COc1ccc(/C=N/N=C(\N)NO)cc1F | > 100 µM | 
O=CC(O)C(O)C1OC(=O)c2cc(O)c(O)c(O)c2C2=C(O)C(O)=C3OC(=O)c4c(c(O)c(O)c5c4C3C2C(=O)O5)-c2c(cc(O)c(O)c2O)C(=O)OCC1O (stereo unspecified) | > 100 µM | 
C[C@@]1(C(=O)O)CCC[C@]2(C)C1CC[C@]13C[C@@](O)(CO)[C@](O)(CC[C@]12O)C3 (stereo partly specified) | > 100 µM | > 100 µM
O=C1NC2C3CC(OCc4ccccc4)(OCc4ccccc4)C2OC3O1 (stereo unspecified) | > 50 µM | 
C[C@@H](CS[As](C)C)C(=O)N1CCC[C@H]1C(=O)O | 10.4 µM | 2.7 µM
CC(=O)O[C@H]1CC[C@H]2[C@@H]3CCC4=C/C(=N/OCCN(C)C)CC[C@]4(C)[C@H]3CC[C@]12C | 25.6 µM | 
C=C(C)C1CCC2=CC(CC3(C)OC3C3=CC(C(=O)OC)=C(C1)O3)OC2=O (stereo unspecified) | > 100 µM | 
C[C@]12CC(C=O)C(=O)C(O)=C1CC[C@@H]1C2CC[C@@]2(C)C1CC[C@]2(C)O (stereo partly specified) | 44.3 µM | 
